The results in this text go back to article PMC4336329 (PLoS ONE, 2015).

The whole screen tested about 310,000 compounds, of which about 2,200 (0.71%) showed an effect of 50% or more. The effect is printed as a negative number. The list shows a part of the results.

The target of the assay is human ether-à-go-go-related gene (hERG) potassium channel (human, UniProt Q12809). The assay is described as follows: primary screen, population patch clamp on CHO cells stably expressing hERG.
Sequence of human ether-à-go-go-related gene (hERG) potassium channel (Q12809 whole entry, looked up): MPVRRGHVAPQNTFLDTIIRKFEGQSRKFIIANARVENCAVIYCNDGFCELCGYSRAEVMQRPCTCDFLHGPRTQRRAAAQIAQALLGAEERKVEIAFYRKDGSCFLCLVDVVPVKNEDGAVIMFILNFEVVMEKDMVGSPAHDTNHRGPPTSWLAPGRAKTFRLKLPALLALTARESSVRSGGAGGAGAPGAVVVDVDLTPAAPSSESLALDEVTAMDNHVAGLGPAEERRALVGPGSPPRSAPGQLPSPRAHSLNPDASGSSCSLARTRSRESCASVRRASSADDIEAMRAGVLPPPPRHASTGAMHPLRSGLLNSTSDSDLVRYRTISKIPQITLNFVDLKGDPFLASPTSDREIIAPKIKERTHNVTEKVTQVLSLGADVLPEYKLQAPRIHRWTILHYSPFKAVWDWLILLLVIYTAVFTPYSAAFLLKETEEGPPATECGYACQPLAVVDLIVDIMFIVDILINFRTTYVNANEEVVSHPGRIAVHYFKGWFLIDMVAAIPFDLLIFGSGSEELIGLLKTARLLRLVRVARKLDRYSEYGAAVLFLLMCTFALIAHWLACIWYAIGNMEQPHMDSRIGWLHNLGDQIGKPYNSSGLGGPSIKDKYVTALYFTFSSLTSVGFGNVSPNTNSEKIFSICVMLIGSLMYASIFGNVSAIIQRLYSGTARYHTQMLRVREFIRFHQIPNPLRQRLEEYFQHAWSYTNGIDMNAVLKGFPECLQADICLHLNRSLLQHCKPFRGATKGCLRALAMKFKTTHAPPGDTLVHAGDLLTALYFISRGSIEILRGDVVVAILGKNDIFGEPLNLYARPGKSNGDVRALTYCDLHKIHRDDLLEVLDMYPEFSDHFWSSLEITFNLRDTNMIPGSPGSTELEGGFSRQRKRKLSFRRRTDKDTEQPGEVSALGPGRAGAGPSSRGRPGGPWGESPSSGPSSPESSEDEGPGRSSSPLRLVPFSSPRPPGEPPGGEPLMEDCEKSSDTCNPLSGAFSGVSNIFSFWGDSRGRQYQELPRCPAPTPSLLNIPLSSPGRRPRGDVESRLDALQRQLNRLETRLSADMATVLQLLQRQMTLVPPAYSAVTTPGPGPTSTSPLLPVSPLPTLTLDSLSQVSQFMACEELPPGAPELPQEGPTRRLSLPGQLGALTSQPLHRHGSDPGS
With `N#CC1CN(Cc2ccccc2)CN(Cc2ccccc2)C1`, the “hERG current change (%, negative = inhibition) at 1uM” value came to 10.9%.

`Cc1ccc(N2CCN(CC(O)COC3CCCCC3)CC2)cc1` (stereo not shown): the “hERG current change (%, negative = inhibition) at 1uM” value was -14.3%.

For `COc1ccccc1CNC(=O)COc1ccc(S(=O)(=O)N2CCCC2)cc1`, the “hERG current change (%, negative = inhibition) at 1uM” value is on record as 4.11%. Regarding `Cc1cc(-c2n[nH]c(=S)n2/N=C/c2ccc(Cl)c([N+](=O)[O-])c2)n[nH]1`, the “hERG current change (%, negative = inhibition) at 1uM” value is listed as 11.9%. As to `CC(=C1C(=O)c2ccccc2C1=O)N1CCN(c2ccc(F)cc2)CC1`, the “hERG current change (%, negative = inhibition) at 1uM” value was -4.99%. As for `COc1ccc2[nH]c(C(O)(Cc3cccnc3)Cc3cccnc3)cc2c1.O`, the “hERG current change (%, negative = inhibition) at 1uM” value turned out to be 10.5%. Next, `NC(=O)c1cccc(S(=O)(=O)N2CC(c3ccccc3)CC2=O)c1` (stereo not shown): -1.54%. Next, `O=C1CCN(Cc2ccc(O)cc2)CCN1[C@H](CO)c1ccccc1`: 0.855%. Next, `COc1ccc(CNC(=O)CN(C(=O)c2snc(C(N)=O)c2N)c2ccc(F)cc2)cc1`: 8.84%. Consider `Nc1ccccc1NC(=O)CCn1c(=S)[nH]c2ccccc2c1=O`, for which the “hERG current change (%, negative = inhibition) at 1uM” value was 11.4%. The same measure for `N#Cc1ccc(NC(=O)CSc2nc3[nH]c(=O)cc(O)c3s2)cc1`: 11.8%; for `CC(C)CCC(CCNCc1ccccn1)c1ccc2c(c1)OCO2.Cl` (stereo not shown): -79.1%; for `CC(C)(C)c1ccc(-c2nnc(SCC(=O)NC3CCS(=O)(=O)C3)n2N)cc1` (stereo not shown): -5.28%. The same measure for `COc1cc(/C=C2/C(=O)NN(c3ccc(F)cc3)C2=O)cc([N+](=O)[O-])c1O`: 8.07%; for `O=C(O)c1nn(-c2ccccc2C(F)(F)F)cc1O`: -4.48%. For the molecule `COCCn1nnnc1C(c1cccs1)N1CCN(c2ccccc2)CC1` (stereo not shown), the “hERG current change (%, negative = inhibition) at 1uM” value is on record as -1.61%. Next, `CCOCCCNC(=O)c1cc2c(=O)n(CC)c3ccccc3c2s1`: -0.72%. The same measure for `Cl.OC(CN1CCNCC1)Cn1c2ccccc2c2ccccc21` (stereo not shown): 8.86%; for `CCCC[C@@H]1CNCCN1CCc1cc(C(F)(F)F)cc(C(F)(F)F)c1`: 11.7%; for `Cc1cc(-c2nnc3n2N=C(c2ccccc2)CS3)n[nH]1`: 9.47%. In the case of `COc1ccc(C2NCCn3cccc32)cc1.O=C(O)/C=C\C(=O)O` (stereo not shown), the “hERG current change (%, negative = inhibition) at 1uM” value is recorded as 0.692%. Next, `Cc1cc(NC(=O)CN2CCc3ccccc3C2)nc2c1c(=O)oc1ccccc12`: 5.95%; `O=C(COc1ccccc1)Nc1cccc(-c2nn[nH]n2)c1`: 13.2%; `CCCCOP(=O)(c1ccc(N(C)C)cc1)C(O)c1ccncc1` (stereo not shown): 5.93%. The same measure for `CCN(CC)CCNCc1cc(Cl)c(OCC(=O)Nc2ccccc2)c(OC)c1.Cl`: 2.85%; for `Cn1cc(CCC(=O)N2CCCC(CCC(=O)NCc3ccc(F)c(F)c3)C2)cn1` (stereo not shown): 1.13%; for `Cc1noc(C)c1C(=O)NCCc1ccc(Cl)cc1`: -2.23%. The same measure for `CCCCN(C(=O)CSc1nnc(Nc2ccccc2)s1)c1c(N)n(CCC)c(=O)[nH]c1=O`: -0.396%; for `CCOc1ccc(N=C2NC(=O)C(CC(=O)O)S2)cc1` (stereo not shown): 8.34%.

`CN1C(=O)CC(N2CCN(c3ccccn3)CC2)C1=O` (stereo not shown): the “hERG current change (%, negative = inhibition) at 1uM” value is reported as 3.16%. The same measure for `Cc1cc(=O)[nH]c(SCc2nc3ccc([N+](=O)[O-])cc3[nH]2)n1`: 2.23%; for `O=C(Nc1nnc(S(=O)(=O)N2CCCC2)s1)c1ccccc1Cl`: -1.16%; for `COc1ccc(N2CCN(C(=S)Nc3ccc(S(N)(=O)=O)cc3)CC2)cc1`: 10.5%. On to `O=c1nc(N2CCOCC2)ccn1-c1nc(-c2ccccc2)oc1-c1ccccc1`, for which the “hERG current change (%, negative = inhibition) at 1uM” value amounted to 5.6%. Next, `O=C(c1ccco1)N1CCN(c2ccc([N+](=O)[O-])cc2F)CC1`: -15.7%; `CCCc1c(CC)c(=N)c2ccccc2n1C.I`: -2.76%; `CC(O)CNc1nc2c(c(=O)n(Cc3ccccc3)c(=O)n2C)n1C` (stereo not shown): 13.5%.

Turning to `CCSc1nnc(NC(=O)c2ccc(S(=O)(=O)N(C)C)cc2)s1`, the “hERG current change (%, negative = inhibition) at 1uM” value was determined as 13.5%. Next, `CCOc1ccccc1NC(=O)c1ccccc1NC(=O)c1ccco1`: 13.4%; `Cc1ccc(NC(=O)CSc2nccn2C)cc1F`: 6.26%; `Cc1ccc(Sc2ccc(NC(=O)CCN3C(=O)NC4(CCCC4)C3=O)cc2)c(C)c1`: 10.8%. The same measure for `Cc1c(Cl)cccc1NC(=O)CSc1ncnc2c1cnn2CCO`: 12.5%; for `Cl.O=C(NCCCCNC(=O)c1cccnc1)c1cccnc1`: -3.76%.
